# Test results published in PMC4336329 (PLoS ONE, 2015).
# In all, about 310,000 compounds went through this assay and about 2,200 (0.71%) showed an effect of 50% or more. Effects have a minus sign here. The list shows a part of the results.
# Target: human ether-à-go-go-related gene (hERG) potassium channel (human, UniProt Q12809)
# Test: primary screen, population patch clamp on CHO cells stably expressing hERG
# human ether-à-go-go-related gene (hERG) potassium channel, sequence (Q12809 whole entry, looked up): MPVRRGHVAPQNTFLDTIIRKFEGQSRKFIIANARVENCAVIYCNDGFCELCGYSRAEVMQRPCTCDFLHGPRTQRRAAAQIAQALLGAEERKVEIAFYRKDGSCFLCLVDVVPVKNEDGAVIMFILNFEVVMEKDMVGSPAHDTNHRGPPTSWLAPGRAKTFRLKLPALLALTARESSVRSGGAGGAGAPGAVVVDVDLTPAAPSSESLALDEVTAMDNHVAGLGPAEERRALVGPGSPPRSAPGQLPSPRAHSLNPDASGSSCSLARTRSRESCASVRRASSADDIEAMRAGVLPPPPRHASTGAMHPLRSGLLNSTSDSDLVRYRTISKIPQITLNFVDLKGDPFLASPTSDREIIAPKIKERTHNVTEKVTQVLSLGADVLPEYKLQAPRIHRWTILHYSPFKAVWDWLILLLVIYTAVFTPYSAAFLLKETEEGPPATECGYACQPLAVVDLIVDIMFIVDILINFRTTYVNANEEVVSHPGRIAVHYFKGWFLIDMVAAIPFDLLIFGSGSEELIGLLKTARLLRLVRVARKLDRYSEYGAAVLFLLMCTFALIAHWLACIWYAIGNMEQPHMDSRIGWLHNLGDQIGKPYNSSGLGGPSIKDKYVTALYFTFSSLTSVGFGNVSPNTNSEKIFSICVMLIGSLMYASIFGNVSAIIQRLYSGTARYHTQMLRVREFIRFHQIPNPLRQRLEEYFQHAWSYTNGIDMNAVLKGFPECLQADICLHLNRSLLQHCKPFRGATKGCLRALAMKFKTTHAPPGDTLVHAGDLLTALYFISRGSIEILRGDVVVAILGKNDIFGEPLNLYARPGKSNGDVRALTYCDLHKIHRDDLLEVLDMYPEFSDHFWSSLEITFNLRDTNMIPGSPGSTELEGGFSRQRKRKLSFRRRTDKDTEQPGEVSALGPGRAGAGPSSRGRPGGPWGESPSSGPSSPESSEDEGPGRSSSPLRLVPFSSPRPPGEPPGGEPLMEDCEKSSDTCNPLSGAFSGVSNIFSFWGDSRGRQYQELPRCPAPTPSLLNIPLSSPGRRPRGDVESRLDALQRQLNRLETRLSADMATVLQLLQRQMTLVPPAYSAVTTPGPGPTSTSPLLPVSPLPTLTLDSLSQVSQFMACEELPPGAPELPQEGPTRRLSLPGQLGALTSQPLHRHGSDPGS
row,Structure (SMILES),"hERG current change (%, negative = inhibition) at 1uM"
1,COc1ccc(C(C(=O)NC(C)(C)C)N(C(=O)CNC(=O)c2cccs2)c2ccc(NC(C)=O)cc2)cc1OC (stereo not drawn),12.2%
2,Cc1cc(N2C(=O)[C@@H]3[C@H](C2=O)[C@@H]2C[C@H]3C(Br)C2Br)no1 (stereo partly drawn),13.2%
3,CCOc1ccc(NC(=O)C23CC4CC(C2)CC(c2ccccc2)(C4)C3)cc1,11%
4,Cc1nc(NC(=O)c2ccccc2O)sc1C,8.06%
5,COc1cccc(-c2nnc(SCC(=O)Nc3cc(C)ccc3OC)n2N)c1,7.6%
6,Cc1ccccc1-c1ccc(C=Nc2c(C)n(C)n(-c3ccccc3)c2=O)o1,11.8%
7,Cc1nc(SCC(=O)N2CCC(C(N)=O)CC2)n[nH]1,16%
8,CC(=O)Nc1ccc(S(=O)(=O)N(C)CC(=O)OCC(=O)c2ccc3c(c2)NC(=O)CO3)cc1,9.86%
9,Cc1c(-c2c(C#N)c(N)nc3c2CCCCCC3)cnn1C,10.9%
10,COc1ccc(NC(=O)C2CCN(C(=O)c3cccs3)CC2)cc1,0.544%
11,COC(=O)c1nnn(-c2nonc2N)c1CN1CCCC1,7.01%
12,CCc1ccc(NC(=O)c2cnc3n(c2=O)CCS3)cc1,-0.518%
13,COC(=O)/C=C1\N/C(=N\c2nc(C)cc(C)n2)N(c2ccc(C)c(C)c2)C1=O,-3.59%
14,COc1ccc2c(c1)/C(=N/N1C(=O)c3ccccc3C1=O)C(=O)N2,11.4%
15,O=C1CN(C(=O)c2ccc(Br)o2)C(c2ccccc2)c2cc(Cl)ccc2N1 (stereo not drawn),5.24%
16,O=C(CCC(=O)Nc1ccccc1)NNC(=O)CCc1ccccc1,13.6%
17,Cc1ccc(C(=O)Nc2ncc(C)s2)s1,13.2%
18,COc1ccccc1N1CCN(C2CCCN(C(=O)CCc3ccccn3)C2)CC1 (stereo not drawn),6.71%
19,COc1ccc(C(=O)OCC(=O)Nc2nc3c(F)c(F)c(F)cc3s2)cc1OC,7.17%
20,C/C(=N\Nc1ccc(Cl)c(C(=O)O)c1)c1ccc2c(c1)OCO2,25.5%
21,O=C(Nc1nc2n(n1)C(c1ccc(Cl)cc1)CC(c1ccc(Cl)cc1)N2)c1ccco1 (stereo not drawn),-3.7%
22,O=C(NCc1ccco1)c1nn2c(C(F)(F)F)cc(-c3cccs3)nc2c1Cl,6.34%
23,CC[C@@]12C(=O)N(c3ccc(C)cc3)C(=O)N1[C@H](c1ccc(Br)cc1)[C@@H]1C(=O)N(C(C)(C)C)C(=O)[C@@H]12,9.86%

row,Structure (SMILES),"hERG current change (%, negative = inhibition) at 1uM"
1,COC(=O)c1c(NC(=O)Cc2cccs2)sc2c1CCCC2,3.71%
2,CN1C(=O)N(CC(=O)N2CCN(S(=O)(=O)/C=C/c3ccccc3)CC2)C(=O)C12CCCCC2,4.7%
3,Cc1ccc(SCC(=O)N2CC(C)OC(C)C2)cc1 (stereo not drawn),10.9%
4,CCOC(=O)N1CCN(C(=O)Nc2ccc(Cl)cc2)CC1,-1.23%
5,CC(=O)c1sc(NC(=O)COc2ccc(C(C)C)c(C)c2)nc1C,10.4%
6,O=C(O)CC1S/C(=N\N=C2\C(=O)Nc3ccccc32)N(c2ccc(O)cc2)C1=O (stereo not drawn),1.39%
7,Cc1ccccc1N(CC(=O)NCc1ccncc1)S(C)(=O)=O,31.5%
8,CCOc1ccc(NC(=O)CCC(=O)NNC(=O)c2ccc(Br)o2)cc1,15.5%
9,Cn1nc(-c2ccc(OCC(=O)N3CCN(Cc4ccccc4)CC3)cc2)c2ccccc2c1=O,5.73%
10,COc1ccccc1/C=C(/C(=O)OCC(=O)N(C)Cc1ccccc1)c1ccccc1,12%
11,Cc1ccc(C(=O)NC(=S)N2CCN(c3cc(C)ccc3C)CC2)cc1,-5.07%
12,OCCSc1nnc(Nc2ccccc2)s1,-1.33%
13,CO/N=C/C(C#N)=C/c1cc(C(=O)c2ccccc2)cn1C,17.1%
14,COc1ccc(N=C2NC(=O)/C(=C/c3ccc(O)c(OC)c3)S2)cc1,10%
15,OCc1cn(-c2ccccc2)nn1,12.9%
16,Cc1ccc2cc3cc(C(=O)NCc4ccco4)oc3nc2c1,10.1%
17,COc1ccc(Cl)cc1C(=O)NCC(=O)OCc1ccccc1,-0.0765%
18,CC/C(=N\Nc1ccccc1)c1c(O)[nH]c(=O)[nH]c1=O,21.4%
19,O=C1CCCCN1CC(=O)N1CCCC(N2CCN(c3ccccc3F)CC2)C1 (stereo not drawn),3.41%
20,NC(=O)CSC1=Nc2ccccc2C2=NC(CC(=O)NCc3cccs3)C(=O)N12 (stereo not drawn),10.4%
21,O=C(Nc1c(-c2ccccc2)nc2ccccn12)c1ccccc1F,2.01%
22,CCOc1ccc(-c2cc(C)[n+](CCO)c(-c3ccc(OCC)cc3)c2)cc1.[O-][Cl+3]([O-])([O-])[O-],1.92%
23,COc1ccc(OC)c2[nH]c(=O)c(CCNC(C)=O)cc12,8.31%

row,Structure (SMILES),"hERG current change (%, negative = inhibition) at 1uM"
1,CCCCc1ccc(NC(=O)COc2ccc(C(=O)Nc3ccccc3OC)cc2)cc1,16.1%
2,Cc1ccc(-c2nn(-c3ccccc3)cc2C(N)=O)o1,10.6%
3,COc1ccc(CCN(C)C(=O)Cn2c(=O)oc3ccccc32)cc1OC,14.1%
4,O=C(Nc1ccc(F)c(Cl)c1)NC1CC1,9.81%
5,COc1ccc(NC(=O)C2C(=O)N(C)C3(C)CC2c2ccccc2O3)cc1 (stereo not drawn),3.33%
6,C=CCn1c(=O)c(C=Nc2cccc([N+](=O)[O-])c2)c(O)n(CCCC)c1=O,-31.1%
7,COc1ccc(CC(=O)N2CCN(c3cccc(Cl)c3)CC2)cc1OC,8.32%
8,CC1Cc2ccccc2N1C(=O)CCn1cccn1 (stereo not drawn),11.2%
9,O=C(Nc1ccc2c(c1)C(=O)N(c1ccccc1)C2=O)c1cccs1,6.79%
10,COC(=O)c1ccc(OC)c(CSc2nnc(COc3cccc(C)c3)o2)c1,1.62%
11,C/C(=C\c1ccc(Cl)cc1)C(=O)c1c(C)cc(C)[nH]c1=O,3.88%
12,Cn1c(SCC(=O)Nc2ccccc2C(F)(F)F)nc2c(c1=O)SCC2,-29.1%
13,CCOC(=O)CNC(=O)CSc1nnc(Cn2c(=O)sc3ccccc32)n1C,10.7%
14,Cc1ccc(O)c(C2=NOC(O)(C(F)(F)C(F)F)C2)c1 (stereo not drawn),11.2%
15,Cc1n[nH]c(=O)c2c(NC(=O)CSc3ncccn3)oc(C)c12,14.8%
16,O=C(CN1CCN(c2ccccn2)CC1)Nc1cccc(Cl)c1Cl,9.2%
17,CCCCn1c(SCC(=O)Nc2ccc(OC)cc2)nc2ccc(N3CCOCC3)cc2c1=O,2.85%
18,N#CC1CC(c2ccccc2)=NN1c1ccccc1[N+](=O)[O-] (stereo not drawn),11%
19,CC(=O)NCCn1c(SCC(=O)OCc2ccccc2)nc2ccccc2c1=O,-38.1%
20,Cc1csc(C(=O)O)c1NC(=O)c1c(Cl)cccc1Cl,8.63%
21,O=C(COC(=O)[C@@H]1CCCN1S(=O)(=O)c1ccccc1F)Nc1ccc(OC(F)F)cc1,-27.8%
22,COc1ccc(C(=O)NCc2ccc3c(c2)CCO3)cc1,7.77%
23,CCc1ccc(OCCOCC(O)CN(CCO)CCO)cc1.Cl (stereo not drawn),13.9%

row,Structure (SMILES),"hERG current change (%, negative = inhibition) at 1uM"
1,COc1ccc(NC(=S)N2CCN(C/C=C/c3ccccc3)CC2)cc1,-5.21%
2,Cc1cc2cc(CNC(=O)Nc3ccccc3)ccc2n1C,13.1%
3,C=CCn1c(SCC(=O)c2[nH]c(C)c(C(C)=O)c2C)nnc1-c1ccncc1,12%
4,CCOC(=O)c1nc(C)n(-c2cc(Cl)cc(Cl)c2)n1,6.28%
5,S=c1[nH]nc(-c2ccccc2)c2ccccc12,8.34%
6,Cl.N=c1n(CCN2CCCCC2)c2ccccc2n1CC(O)c1ccc(Cl)c(Cl)c1 (stereo not drawn),-70.4%
7,Cn1c(SCC(=O)c2ccccc2)nnc1-c1ccc(O)cc1,-5.87%
8,CNc1snc(C)c1C(=O)OCC(=O)N(C)Cc1ccccc1,8.86%
9,N#CC(C#N)=C1C=CC=CN1/C(=C\c1ccccc1)C(=O)c1cccs1,11.9%
10,CCN(CC)c1ccc(/C=N\NC(N)=O)cc1,3.34%
11,Cn1c(SCC(=O)N2CCOCC2)nnc1-c1ccco1,15.3%
12,Cc1ccccc1CNCc1cccnc1,6%
13,Cc1nn(C)cc1/C=N\NC(=O)c1ccc(Cn2cc(Cl)cn2)cc1,8.34%
14,CCc1nnc(NC(=O)CSc2nnc(CNc3ccc(OC)cc3)n2CC)s1,12.4%
15,CCN(CC)S(=O)(=O)c1ccc(Cl)c(NC(=O)c2cc(Cl)cc(Cl)c2)c1,16.3%
16,Cc1cc(C)n2nc(-c3cccnc3)nc2n1,11.9%
17,CCOC(=O)C(C#N)=C1CCN(Cc2ccccc2)CC1,14.5%
18,CC(C)CCNC(=O)Cc1csc(-c2ccccc2)n1,6.54%
19,CCOc1ccc(CCNC(=O)COC(=O)c2cc(OC)cc(OC)c2)cc1OCC,2.97%
20,O=C1/C(=C/c2ccc([N+](=O)[O-])cc2)CCC1C1CCCC1 (stereo not drawn),15.1%
21,O=C(COc1ccc(/C=N/NC(=O)C(=O)N2CCCCC2)cc1)Nc1ccccc1Cl,17.8%
